This is an account of results in PubChem BioAssay (NCI).

The test system of this assay is NCI-H322M lung. The assay is described as follows: growth of human tumour cells (NCI), 48 h.

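1) Cells in 96-well plates. 2) Compound, 48 h, 5 concentrations. 3) Linear interpolation between surrounding doses. 4) Unreached endpoint = highest concentration. GI50 = concentration required for 50% inhibition of growth. TGI: concentration producing complete growth inhibition.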 Some results are limits rather than exact numbers.

On to `Cc1ccccc1C(O)(c1nccn1C)c1nccn1C`, for which the TGI is > 100 µM.

Regarding `NC(=O)/C=C/C(=O)O`, the TGI was > 5000 µM.

For `CN(C)c1nc(=NCc2ccccc2)ss1`, the TGI is > 10 µM.

Turning to `COc1ccc(Nc2nc3ccccc3nc2-c2cccs2)cc1`, the TGI was > 100 µM.

Consider `CC1CC[C@@]2(OC1)OC1C[C@H]3[C@@H]4CC[C@H]5CC(OC6OC(CO)C(OC7OC(CO)C(O)C(O)C7OC7OC(CO)C(O)C(O)C7O)C(O)C6O)CCC5(C)[C@H]4CCC3(C)C1[C@@H]2C` (some centres undefined), for which the TGI came out at 6.02 µM.

On to `COC(=O)c1c2c(cc3c1CC1(C3)Cc3cc4c(c(C(=O)OC)c3C1)CCCC4)CCCC2`, for which the TGI was > 100 µM.

As for `Cc1ncc(C(=O)Nc2ccc(CN3CCN(C)CC3)c(C(F)(F)F)c2)cc1C#Cc1cnc(NC2CC2)c2ncccc12`, the GI50 was 0.762 µM and the TGI was determined as 1.53 µM.

For `COC1OC(C)C(OCc2ccccc2)C(OS(=O)(=O)c2ccc(C)cc2)C1OS(=O)(=O)c1ccc(C)cc1` (centres undefined), the TGI was > 100 µM.

The molecule `C(=N\NC1=NCCCN1)/c1ccc2ccccc2c1` had a TGI of 29.1 µM.

In the case of `c1ccc2c(c1)NC(C1OC3CCCN3C1C1Nc3ccccc3S1)S2` (centres undefined), the TGI is > 100 µM.

Consider `O=C1C=C(O)c2[nH]c(=O)ccc2C1=O`, for which the TGI was > 100 µM.

For `OC(CN1CC1)C(O)CN1CC1` (centres undefined), the GI50 was > 50 µg/mL and the TGI is > 50 µg/mL.

Regarding `c1ccc(Cn2cnc3ccc(-c4nc(-c5ccc6c(c5)ncn6C5CCCCC5)cn5ccnc45)cc32)cc1`, the GI50 was 3.05 µM and the TGI is > 100 µM.

As for `Cc1ccccc1Nc1nc2c(s1)C(=O)c1ccccc1C2=O`, the TGI came to 28.4 µM.

For `O=[N+]([O-])/C(C(Cl)=C(Cl)Cl)=C(\Nc1cccc2cccnc12)SCc1ccccc1`, the TGI was 56.4 µM.

In turn, `CC1(C)[C@@H]2CC[C@@]1(C)[C@@H]1O[C@@H](O[C@@H](CN)c3cc(Cl)c(OCc4ccccc4)c(OCc4ccccc4)c3)C[C@H]21` registered a TGI of 0.312 µM.

Consider `CC(C)c1ccc(C(=O)Nc2sc3c(CN(C)C)c(O)ccc3c2C(N)=O)cc1`, for which the GI50 was 2.75 µM and the TGI is > 100 µM.

On to `CCCNC(=O)CCC(C)[C@H]1CCC2C3C(C[C@H](OC(C)=O)[C@@]21C)[C@@]1(C)CCC2(C[C@H]1C[C@H]3OC(C)=O)OOC1(CCC(C)CC1)OO2` (some centres undefined), for which the TGI was > 100 µM.

Consider `CCOc1cc(C2CC(c3ccc(NS(=O)(=O)c4cc([N+](=O)[O-])ccc4C)cc3)=NN2C(=O)c2ccccc2)ccc1O` (centres undefined), for which the TGI was > 100 µM.

Turning to `c1ccc2sc(SCSc3nc4ccccc4s3)nc2c1`, the TGI is > 100 µM.
